In all, about 33,000 sequences were measured (“E-score (-0.5 to 0.5)”: median about -0.053, highest 2% from about 0.37 on). Some of the results follow.
Target: Hap1 (UniProt P0CE41)
Experiment: PBM E-score (8-mer binding enrichment) (E-score (-0.5 to 0.5)); higher = stronger / more preferred TF binding; most listed sequences are background and not binding sites
Conditions: protein concentration: 200 nM; construct: GST-DNA-binding domain
Procedure: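 Universal 'all 10-mer' protein binding microarrays (Agilent AMADID 015681) probed with GST-tagged S. cerevisiae TFs (full-length or DBD) made by in vitro transcription/translation (PURExpress), about 100-200 nM. Bound TF was detected with fluorescent anti-GST. Each ungapped 8-mer (which stands for itself and its reverse complement) is scored by the PBM enrichment score (E-score), a modified Wilcoxon-Mann-Whitney statistic from -0.5 to +0.5, computed with the Universal PBM Analysis Suite. Scale: above 0.35 generally sequence-specific binding.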

UniProt P0CE41, sequence (P0CE41 whole entry): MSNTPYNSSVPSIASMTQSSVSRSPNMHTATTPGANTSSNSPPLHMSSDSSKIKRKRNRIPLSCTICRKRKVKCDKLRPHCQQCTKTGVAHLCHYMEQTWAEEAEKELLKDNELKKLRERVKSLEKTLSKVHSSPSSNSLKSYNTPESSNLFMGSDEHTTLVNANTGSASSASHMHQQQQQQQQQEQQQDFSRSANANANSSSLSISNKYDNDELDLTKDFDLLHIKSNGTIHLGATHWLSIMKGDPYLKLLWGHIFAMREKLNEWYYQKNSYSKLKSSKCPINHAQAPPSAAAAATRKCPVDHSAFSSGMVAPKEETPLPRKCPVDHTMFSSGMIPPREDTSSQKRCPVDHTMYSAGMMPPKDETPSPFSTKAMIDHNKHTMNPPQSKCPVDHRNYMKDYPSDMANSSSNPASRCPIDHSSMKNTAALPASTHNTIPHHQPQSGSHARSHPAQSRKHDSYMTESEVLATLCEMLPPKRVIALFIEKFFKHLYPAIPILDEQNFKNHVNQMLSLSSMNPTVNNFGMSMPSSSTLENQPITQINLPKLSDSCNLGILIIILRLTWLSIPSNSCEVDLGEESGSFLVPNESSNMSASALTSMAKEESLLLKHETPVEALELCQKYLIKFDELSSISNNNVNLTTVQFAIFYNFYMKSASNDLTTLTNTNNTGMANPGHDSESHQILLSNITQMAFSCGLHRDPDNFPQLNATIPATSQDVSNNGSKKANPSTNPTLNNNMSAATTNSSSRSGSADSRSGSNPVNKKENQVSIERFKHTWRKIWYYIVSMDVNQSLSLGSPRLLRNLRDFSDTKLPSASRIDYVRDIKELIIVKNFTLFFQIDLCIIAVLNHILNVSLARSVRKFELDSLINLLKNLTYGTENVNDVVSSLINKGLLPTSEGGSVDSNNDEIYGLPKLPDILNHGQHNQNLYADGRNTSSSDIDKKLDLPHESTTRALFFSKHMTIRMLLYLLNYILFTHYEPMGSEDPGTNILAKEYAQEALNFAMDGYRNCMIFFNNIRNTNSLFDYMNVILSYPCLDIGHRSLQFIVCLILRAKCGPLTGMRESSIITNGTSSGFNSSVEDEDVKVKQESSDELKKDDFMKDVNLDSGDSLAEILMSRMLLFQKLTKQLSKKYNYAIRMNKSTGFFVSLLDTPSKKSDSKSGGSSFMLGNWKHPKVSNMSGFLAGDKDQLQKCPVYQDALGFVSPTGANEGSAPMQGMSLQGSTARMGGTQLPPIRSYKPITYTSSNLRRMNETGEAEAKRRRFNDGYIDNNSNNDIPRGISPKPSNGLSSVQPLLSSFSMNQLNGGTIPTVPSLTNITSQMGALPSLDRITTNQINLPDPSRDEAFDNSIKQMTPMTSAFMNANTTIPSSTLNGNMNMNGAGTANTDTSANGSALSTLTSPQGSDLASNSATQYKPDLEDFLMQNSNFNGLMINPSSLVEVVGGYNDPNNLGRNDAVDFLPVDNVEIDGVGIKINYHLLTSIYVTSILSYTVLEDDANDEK

Sequence	PBM E-score
CCCCGCTC	0.0426
ACGGTCCA	0.125
CGATCAAC	-0.0697
GCTATATA	-0.203
TACACTAA	-0.225
ACATCACG	-0.152
ACCGCCCC	0.236
ATGAGATG	-0.18
ACAGATGG	-0.182
AGGATGAC	-0.263
ATGGTCGA	-0.174
ACACGTGT	-0.281
GGAAGAGA	0.109
CCGCCAGC	0.0463
GAACGTCA	-0.238
CGGTATTA	0.412
ATTTCATG	-0.268
GATATGGC	0.11
CCGGGAGG	0.29
CAGAAGGC	-0.0753
CGAAATGA	0.208
CTGTTGGA	-0.174
AGACAGAA	-0.173
ATTGAGTA	-0.118
GGAGACTA	-0.0255

Sequence	PBM E-score
CAGTATCC	-0.0739
GAACCGAC	0.124
CGGATAAC	0.359
GGGCGCAC	-0.0191
CTCCCTAC	-0.245
CGTGGTCA	-0.142
AATATTAC	0.0669
ACTCTGGC	-0.091
ATAAAATG	-0.0472
ATATCGCA	0.0581
AAGGACCA	-0.199
AGCGGGAT	0.136
ACCCCCAC	-0.0534
TAAGGGGA	-0.0237
ATAACAAT	-0.046
ATCATCGG	0.361
AGAGTCAT	-0.343
AGCGTCAA	-0.0521
GCGCGTTA	0.122
ATTGACGC	-0.123
ACTTCGAA	-0.188
ATCCGCTC	0.29
AAACGCGA	0.145
GTCGCGTA	-0.051
ATCGCCAT	0.0823

Sequence	PBM E-score
ACTTATAG	-0.0992
AAGCGAGT	0.176
ATTAAAAG	-0.0542
ATAAAGAC	0.0444
GGATTACA	0.0168
CGAGAATA	0.0543
ACACACAC	-0.283
AGTGATAT	0.0216
CATCTTGG	-0.129
CATCGGCA	0.266
CGAAGTAC	0.18
GAAGGGGC	-0.204
TGAGAACA	-0.179
CAACGAAG	-0.27
AGCGTACT	-0.0657
AAGGCCAG	-0.0606
CTACCAAG	-0.298
ATATGTTG	-0.0945
AGACCAAT	-0.221
AGGGCGGG	0.141
TACTTGAA	-0.264
GCAGTACA	-0.136
ATGGACAG	-0.24
ATATCTCC	0.437
GTGAAGAA	-0.0665

Sequence	PBM E-score
GTCGAGAA	-0.171
AGGTGCAA	-0.128
GGAAATCA	0.0747
CCCCAAAG	-0.293
AAGATCGC	-0.0915
CCGGGAAG	0.294
AGAGTATG	0.00796
CCAATTTC	0.168
CGATACAG	0.109
AAATCGCT	0.0274
CAGTAGCC	-0.144
CCGTAGCA	-0.141
CATTGACG	-0.206
GAACGAAA	-0.0605
AGGTTAAC	0.157
CCAGTGGG	-0.0849
GGTACTTA	-0.00883
ACCTTTGC	-0.0773
ATAGAGTC	-0.0717
CCGTCCGA	0.399
ACACGTCC	0.0365
GACAGACA	0.214
AACATGTC	0.1
CTGGAGGC	-0.096
CTTTGCCA	0.0049

Sequence	PBM E-score
AGTTTATC	0.102
ATTGCGGC	0.101
ATTATCTG	0.0265
ACCGCAAA	0.0946
ATTCGGGA	0.197
CCATCGTA	-0.0897
CCCGGGAA	0.339
AATTCTTA	0.0131
AATAGAGG	-0.0248
CCGCCGAG	0.352
ATCTTACG	0.0394
AAGTTTGG	-0.104
CGACAACG	0.105
AACTGCGG	0.323
ATTAACGA	0.0607
AACATGGA	-0.0735
GATGTGCC	-0.0518
GGGATAGA	-0.0284
GACCTGGC	-0.00044
AAGAAGAC	-0.157
CAGAATTC	-0.0591
AACCCACA	-0.182
CCCGATCA	0.155
CACAGTGG	-0.0715
GGACCGAC	0.341

Sequence	PBM E-score
AGATAGCC	0.0418
CGCAGACC	0.00648
ATCTTCTG	-0.0339
CCCGACGC	0.243
AGTAACGG	0.201
GGGATCAC	-0.0893
CGGCCCTC	0.177
CCGATAGC	0.372
AGGAGTAT	-0.265
CCTCCGCA	0.173
GGGTGTGA	-0.0112
CATCCATA	-0.0703
CACAGGAA	-0.136
ACAATCGG	0.329
GCATTGAC	-0.194
GCTAGCAC	-0.144
TACCCATA	-0.258
CACCGCAA	0.245
GCTCCTCC	-0.146
AGACAAAA	-0.0647
ATGCTGGA	-0.113
GCACTCGC	-0.0299
GCAGCGGA	0.158
AAGTGACA	-0.105
GGTGTTAC	0.0592

Sequence	PBM E-score
AACACGAC	-0.128
AATCTCAA	-0.0418
CCACCTCA	-0.103
ACTTAGCA	0.0386
GAGCTTCC	0.175
AAAATAGC	-0.251
ACTTTTTC	0.0285
CAGCCTCA	-0.227
CGTGTTGC	0.0334
CGATCGCG	0.22
AGTAACTG	-0.164
ACGGACAA	0.335
AGCAAACT	-0.0518
CAAGGGGC	-0.0889
AAGACGCG	0.112
ACATCCGA	0.382
TAATGACA	-0.0837
ACACAATG	-0.2
CCGCTACG	0.349
CGGTTCTC	0.02
GAGGCACC	-0.0321
ACCTGTTG	-0.108

Source: the supplement of paper PMC3334620
